Test results: the supplement of paper PMC8728848
This is one part of the list.

Assays:
Assay in all cases: glycan array binding signal (z-score within array); higher = stronger binding
Details in all cases: glycan notation: IUPAC condensed, linker removed
[1] = molecular target: Gal(b1-4)GlcNAc(b1-3)Gal(b1-4)GlcNAc(b1-2)[Gal(b1-4)GlcNAc(b1-3)Gal(b1-4)GlcNAc(b1-6)]Man(a1-6)[Gal(b1-4)GlcNAc(b1-3)Gal(b1-4)GlcNAc(b1-2)Man(a1-3)]Man(b1-4)GlcNAc(b1-4)GlcNAc
Outline: (§1)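 The Consortium for Functional Glycomics database supplied 3228 glycan arrays, of which those lacking an available protein sequence were dropped. The binding signal, a within-array Z-score, was averaged across arrays of the same protein sequence and across linkers. Negative scores can be read as non-binding.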

[2] = molecular target: Gal(b1-4)GlcNAc(b1-3)Gal(b1-4)GlcNAc(b1-2)[Gal(b1-4)GlcNAc(b1-3)Gal(b1-4)GlcNAc(b1-6)]Man(a1-6)[Gal(b1-4)GlcNAc(b1-3)Gal(b1-4)GlcNAc(b1-2)Man(a1-3)]Man(b1-4)GlcNAc(b1-4)[Fuc(a1-6)]GlcNAc
Outline: as §1

[3] = molecular target: Gal(b1-4)GlcNAc(b1-3)Gal(b1-4)GlcNAc(b1-3)Gal(b1-4)GlcNAc
Outline: as §1

[4] = molecular target: Gal(b1-4)GlcNAc(b1-3)Gal(b1-4)GlcNAc(b1-3)Gal(b1-4)GlcNAc(b1-2)Man(a1-3)[Gal(b1-4)GlcNAc(b1-3)Gal(b1-4)GlcNAc(b1-3)Gal(b1-4)GlcNAc(b1-2)Man(a1-6)]Man(b1-4)GlcNAc(b1-4)GlcNAc
Outline: as §1

[5] = molecular target: Gal(b1-4)GlcNAc(b1-3)Gal(b1-4)GlcNAc(b1-3)Gal(b1-4)GlcNAc(b1-2)Man(a1-3)[Gal(b1-4)GlcNAc(b1-3)Gal(b1-4)GlcNAc(b1-3)Gal(b1-4)GlcNAc(b1-2)Man(a1-6)]Man(b1-4)GlcNAc(b1-4)[Fuc(a1-6)]GlcNAc
Outline: as §1

[6] = molecular target: Gal(b1-4)GlcNAc(b1-3)Gal(b1-4)GlcNAc(b1-3)Gal(b1-4)GlcNAc(b1-2)[Gal(b1-4)GlcNAc(b1-3)Gal(b1-4)GlcNAc(b1-3)Gal(b1-4)GlcNAc(b1-6)]Man(a1-6)[Gal(b1-4)GlcNAc(b1-3)Gal(b1-4)GlcNAc(b1-3)Gal(b1-4)GlcNAc(b1-2)Man(a1-3)]Man(b1-4)GlcNAc(b1-4)[Fuc(a1-6)]GlcNAc
Outline: as §1

[7] = molecular target: Gal(b1-4)GlcNAc(b1-3)Gal(b1-4)GlcNAc(b1-3)Gal(b1-4)GlcNAc(b1-3)Gal(b1-4)GlcNAc(b1-2)Man(a1-3)[Gal(b1-4)GlcNAc(b1-3)Gal(b1-4)GlcNAc(b1-3)Gal(b1-4)GlcNAc(b1-3)Gal(b1-4)GlcNAc(b1-2)Man(a1-6)]Man(b1-4)GlcNAc(b1-4)GlcNAc
Outline: as §1

[8] = molecular target: Gal(b1-4)GlcNAc(b1-3)Gal(b1-4)GlcNAc(b1-3)Gal(b1-4)GlcNAc(b1-3)Gal(b1-4)GlcNAc(b1-2)Man(a1-3)[Gal(b1-4)GlcNAc(b1-3)Gal(b1-4)GlcNAc(b1-3)Gal(b1-4)GlcNAc(b1-3)Gal(b1-4)GlcNAc(b1-2)Man(a1-6)]Man(b1-4)GlcNAc(b1-4)[Fuc(a1-6)]GlcNAc
Outline: as §1

[9] = molecular target: Gal(b1-4)GlcNAc(b1-3)Gal(b1-4)GlcNAc(b1-3)Gal(b1-4)GlcNAc(b1-3)Gal(b1-4)GlcNAc(b1-2)[Gal(b1-4)GlcNAc(b1-3)Gal(b1-4)GlcNAc(b1-3)Gal(b1-4)GlcNAc(b1-3)Gal(b1-4)GlcNAc(b1-6)]Man(a1-6)[Gal(b1-4)GlcNAc(b1-3)Gal(b1-4)GlcNAc(b1-3)Gal(b1-4)GlcNAc(b1-3)Gal(b1-4)GlcNAc(b1-2)Man(a1-3)]Man(b1-4)GlcNAc(b1-4)[Fuc(a1-6)]GlcNAc
Outline: as §1

[10] = molecular target: Gal(b1-4)GlcNAc(b1-3)Gal(b1-4)GlcNAc(b1-3)Gal(b1-4)GlcNAc(b1-3)Gal(b1-4)GlcNAc(b1-3)Gal(b1-4)GlcNAc(b1-2)Man(a1-3)[Gal(b1-4)GlcNAc(b1-3)Gal(b1-4)GlcNAc(b1-3)Gal(b1-4)GlcNAc(b1-3)Gal(b1-4)GlcNAc(b1-3)Gal(b1-4)GlcNAc(b1-2)Man(a1-6)]Man(b1-4)GlcNAc(b1-4)GlcNAc
Outline: as §1

[11] = molecular target: Gal(b1-4)GlcNAc(b1-3)Gal(b1-4)GlcNAc(b1-3)Gal(b1-4)GlcNAc(b1-3)Gal(b1-4)GlcNAc(b1-3)Gal(b1-4)GlcNAc(b1-2)Man(a1-3)[Gal(b1-4)GlcNAc(b1-3)Gal(b1-4)GlcNAc(b1-3)Gal(b1-4)GlcNAc(b1-3)Gal(b1-4)GlcNAc(b1-3)Gal(b1-4)GlcNAc(b1-2)Man(a1-6)]Man(b1-4)GlcNAc(b1-4)[Fuc(a1-6)]GlcNAc
Outline: as §1

[12] = molecular target: Gal(b1-4)GlcNAc(b1-3)Gal(b1-4)GlcNAc(b1-3)Gal(b1-4)GlcNAc(b1-3)Gal(b1-4)GlcNAc(b1-3)Gal(b1-4)GlcNAc(b1-2)[Gal(b1-4)GlcNAc(b1-3)Gal(b1-4)GlcNAc(b1-3)Gal(b1-4)GlcNAc(b1-3)Gal(b1-4)GlcNAc(b1-3)Gal(b1-4)GlcNAc(b1-6)]Man(a1-6)[Gal(b1-4)GlcNAc(b1-3)Gal(b1-4)GlcNAc(b1-3)Gal(b1-4)GlcNAc(b1-3)Gal(b1-4)GlcNAc(b1-3)Gal(b1-4)GlcNAc(b1-2)Man(a1-3)]Man(b1-4)GlcNAc(b1-4)[Fuc(a1-6)]GlcNAc
Outline: as §1

[13] = molecular target: Gal(b1-4)GlcNAc(b1-3)Gal(b1-4)GlcNAc(b1-3)Gal(b1-4)GlcNAc(b1-3)Gal(b1-4)GlcNAc(b1-3)Gal(b1-4)GlcNAc(b1-3)Gal(b1-4)GlcNAc(b1-2)Man(a1-3)[Gal(b1-4)GlcNAc(b1-3)Gal(b1-4)GlcNAc(b1-3)Gal(b1-4)GlcNAc(b1-3)Gal(b1-4)GlcNAc(b1-3)Gal(b1-4)GlcNAc(b1-3)Gal(b1-4)GlcNAc(b1-2)Man(a1-6)]Man(b1-4)GlcNAc(b1-4)GlcNAc
Outline: as §1

[14] = molecular target: Gal(b1-4)GlcNAc(b1-3)Gal(b1-4)GlcNAc(b1-3)GalNAc
Outline: as §1

[15] = molecular target: Gal(b1-4)GlcNAc(b1-3)Gal(b1-4)GlcNAc(b1-3)[Gal(b1-4)GlcNAc(b1-3)Gal(b1-4)GlcNAc(b1-6)]GalNAc
Outline: as §1

[16] = molecular target: Gal(b1-4)GlcNAc(b1-3)Gal(b1-4)GlcNAc(b1-6)[Gal(b1-3)]GalNAc
Outline: as §1

[17] = molecular target: Gal(b1-4)GlcNAc(b1-3)Gal(b1-4)[Fuc(a1-3)]GlcNAc(b1-3)Gal(b1-4)[Fuc(a1-3)]GlcNAc
Outline: as §1

[18] = molecular target: Gal(b1-4)GlcNAc(b1-3)GalNAc
Outline: as §1

[19] = molecular target: Gal(b1-4)GlcNAc(b1-3)[Fuc(a1-3)GlcNAc(b1-6)]Gal(b1-4)Glc
Outline: as §1

[20] = molecular target: Gal(b1-4)GlcNAc(b1-3)[Gal(b1-4)GlcNAc(b1-6)]Gal(b1-4)GlcNAc
Outline: as §1

[21] = molecular target: Gal(b1-4)GlcNAc(b1-3)[GlcNAc(b1-6)]Gal(b1-4)GlcNAc
Outline: as §1

[22] = molecular target: Gal(b1-4)GlcNAc(b1-6)Gal(b1-4)GlcNAc
Outline: as §1

[23] = molecular target: Gal(b1-4)GlcNAc(b1-6)GalNAc
Outline: as §1

[24] = molecular target: Gal(b1-4)GlcNAc(b1-6)[Gal(b1-3)]GalNAc
Outline: as §1

[25] = molecular target: Gal(b1-4)GlcNAc(b1-6)[Gal(b1-4)GlcNAc(b1-3)]GalNAc
Outline: as §1

Gal(b1-4)GlcNAc6P = molecular target: Gal(b1-4)GlcNAc6P
Outline: as §1

Gal(b1-6)Gal = molecular target: Gal(b1-6)Gal
Outline: as §1

Gal3S(b1-3)GalNAc = molecular target: Gal3S(b1-3)GalNAc
Outline: as §1

Gal3S(b1-3)GlcNAc = molecular target: Gal3S(b1-3)GlcNAc
Outline: as §1

[26] = molecular target: Gal3S(b1-3)[Fuc(a1-4)]GlcNAc
Outline: as §1

Gal3S(b1-4)Glc = molecular target: Gal3S(b1-4)Glc
Outline: as §1

Gal3S(b1-4)Glc6S = molecular target: Gal3S(b1-4)Glc6S
Outline: as §1

Gal3S(b1-4)GlcNAc = molecular target: Gal3S(b1-4)GlcNAc
Outline: as §1

[27] = molecular target: Gal3S(b1-4)[Fuc(a1-3)]Glc6S
Outline: as §1

[28] = molecular target: Gal3S(b1-4)[Fuc(a1-3)]GlcNAc
Outline: as §1

[29] = molecular target: Gal3S(b1-4)[Fuc(a1-3)]GlcNAc6S
Outline: as §1

Gal3S4S(b1-4)GlcNAc = molecular target: Gal3S4S(b1-4)GlcNAc
Outline: as §1

Gal3S6S(b1-4)GlcNAc = molecular target: Gal3S6S(b1-4)GlcNAc
Outline: as §1

Gal3S6S(b1-4)GlcNAc6S = molecular target: Gal3S6S(b1-4)GlcNAc6S
Outline: as §1

Gal4S(b1-4)GlcNAc = molecular target: Gal4S(b1-4)GlcNAc
Outline: as §1

Gal4S6S(b1-4)GlcNAc = molecular target: Gal4S6S(b1-4)GlcNAc
Outline: as §1

Gal6P(b1-4)GlcNAc = molecular target: Gal6P(b1-4)GlcNAc
Outline: as §1

Gal6S(b1-3)GlcNAc = molecular target: Gal6S(b1-3)GlcNAc
Outline: as §1

Gal6S(b1-3)GlcNAc6S = molecular target: Gal6S(b1-3)GlcNAc6S
Outline: as §1

Gal6S(b1-4)Glc = molecular target: Gal6S(b1-4)Glc
Outline: as §1

B1: RBMC2 (Vibrio cholerae) (protein)
chain: KISVRSGFAIDAIGASASTLVGGTGGNLNAAVNVKDIKAIDLTWGKYYWGGYHLLALDFRMSNGSVISMGSKNYAYSKQTERFTVPAGSRIKGIKAWTAGWLLDGVQFELA
[1]
  glycan array binding signal (z-score): -0.097
[2]
  glycan array binding signal (z-score): -0.047
[3]
  glycan array binding signal (z-score): -0.368
[4]
  glycan array binding signal (z-score): 1.48
[5]
  glycan array binding signal (z-score): 2.19
[6]
  glycan array binding signal (z-score): -0.331
[7]
  glycan array binding signal (z-score): 2.24
[8]
  glycan array binding signal (z-score): 1.76
[9]
  glycan array binding signal (z-score): -0.204
[10]
  glycan array binding signal (z-score): 2.36
[11]
  glycan array binding signal (z-score): 1.79
[12]
  glycan array binding signal (z-score): -0.216
[13]
  glycan array binding signal (z-score): 1.18
[14]
  glycan array binding signal (z-score): -0.363
[15]
  glycan array binding signal (z-score): -0.254
[16]
  glycan array binding signal (z-score): -0.296
[17]
  glycan array binding signal (z-score): -0.252
[18]
  glycan array binding signal (z-score): -0.364
[19]
  glycan array binding signal (z-score): -0.295
[20]
  glycan array binding signal (z-score): -0.357
[21]
  glycan array binding signal (z-score): -0.184
[22]
  glycan array binding signal (z-score): -0.348
[23]
  glycan array binding signal (z-score): -0.243
[24]
  glycan array binding signal (z-score): -0.013
[25]
  glycan array binding signal (z-score): -0.423
Gal(b1-4)GlcNAc6P
  glycan array binding signal (z-score): -0.292
Gal(b1-6)Gal
  glycan array binding signal (z-score): -0.2
Gal3S(b1-3)GalNAc
  glycan array binding signal (z-score): -0.23
Gal3S(b1-3)GlcNAc
  glycan array binding signal (z-score): -0.436
[26]
  glycan array binding signal (z-score): -0.327
Gal3S(b1-4)Glc
  glycan array binding signal (z-score): -0.368
Gal3S(b1-4)Glc6S
  glycan array binding signal (z-score): -0.273
Gal3S(b1-4)GlcNAc
  glycan array binding signal (z-score): -0.303
[27]
  glycan array binding signal (z-score): -0.305
[28]
  glycan array binding signal (z-score): -0.263
[29]
  glycan array binding signal (z-score): -0.175
Gal3S4S(b1-4)GlcNAc
  glycan array binding signal (z-score): -0.108
Gal3S6S(b1-4)GlcNAc
  glycan array binding signal (z-score): -0.406
Gal3S6S(b1-4)GlcNAc6S
  glycan array binding signal (z-score): -0.038
Gal4S(b1-4)GlcNAc
  glycan array binding signal (z-score): -0.438
Gal4S6S(b1-4)GlcNAc
  glycan array binding signal (z-score): -0.217
Gal6P(b1-4)GlcNAc
  glycan array binding signal (z-score): -0.201
Gal6S(b1-3)GlcNAc
  glycan array binding signal (z-score): -0.328
Gal6S(b1-3)GlcNAc6S
  glycan array binding signal (z-score): -0.337
Gal6S(b1-4)Glc
  glycan array binding signal (z-score): -0.358
